Measured values: paper PMC4336329 (PLoS ONE, 2015)
Out of some 310,000 compounds screened, about 14,000 (4.5%) showed an effect of 50% or more. Effects have a minus sign here. This is one part of the list.

target: human ether-à-go-go-related gene (hERG) potassium channel (human, UniProt Q12809); assay: primary screen, population patch clamp on CHO cells stably expressing hERG
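Also: peak tail current of the secondary pulse compared with the same well before compound.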

Chain of human ether-à-go-go-related gene (hERG) potassium channel (Q12809 whole entry, looked up): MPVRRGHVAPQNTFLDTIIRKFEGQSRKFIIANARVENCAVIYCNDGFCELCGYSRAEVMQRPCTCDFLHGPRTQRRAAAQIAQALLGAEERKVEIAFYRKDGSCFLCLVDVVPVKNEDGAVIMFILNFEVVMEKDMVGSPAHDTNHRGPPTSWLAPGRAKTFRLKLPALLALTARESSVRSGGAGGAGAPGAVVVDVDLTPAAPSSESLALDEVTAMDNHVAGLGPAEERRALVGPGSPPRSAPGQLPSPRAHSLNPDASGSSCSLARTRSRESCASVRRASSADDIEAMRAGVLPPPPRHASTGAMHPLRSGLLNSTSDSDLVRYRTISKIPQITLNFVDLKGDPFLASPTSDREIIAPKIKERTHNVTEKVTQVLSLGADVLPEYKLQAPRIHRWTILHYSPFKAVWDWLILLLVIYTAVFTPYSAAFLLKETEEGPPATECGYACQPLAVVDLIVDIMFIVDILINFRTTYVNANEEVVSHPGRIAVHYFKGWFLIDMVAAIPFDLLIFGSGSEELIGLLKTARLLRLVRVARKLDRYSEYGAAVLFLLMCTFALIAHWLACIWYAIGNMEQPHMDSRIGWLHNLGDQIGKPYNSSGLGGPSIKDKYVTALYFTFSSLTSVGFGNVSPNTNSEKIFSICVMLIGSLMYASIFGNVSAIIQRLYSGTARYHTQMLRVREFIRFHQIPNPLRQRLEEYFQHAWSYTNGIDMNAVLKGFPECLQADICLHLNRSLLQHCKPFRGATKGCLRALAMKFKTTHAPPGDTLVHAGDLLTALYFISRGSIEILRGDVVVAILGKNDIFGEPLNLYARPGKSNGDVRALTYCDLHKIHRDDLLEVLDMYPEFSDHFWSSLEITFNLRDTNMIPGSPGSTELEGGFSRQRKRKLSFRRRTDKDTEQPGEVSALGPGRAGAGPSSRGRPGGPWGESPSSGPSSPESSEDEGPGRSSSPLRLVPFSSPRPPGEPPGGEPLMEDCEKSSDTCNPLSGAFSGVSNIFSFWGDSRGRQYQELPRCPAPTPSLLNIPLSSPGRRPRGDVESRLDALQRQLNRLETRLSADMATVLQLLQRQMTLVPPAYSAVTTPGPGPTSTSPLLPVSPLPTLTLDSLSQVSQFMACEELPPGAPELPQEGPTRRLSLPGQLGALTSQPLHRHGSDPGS

Structure (SMILES)	hERG current change (%, negative = inhibition) at 10uM [%]
CCCCC(=O)Nc1ccc(C(=O)NNC(=S)NC(=O)c2ccccc2[N+](=O)[O-])cc1	16.3
Cc1cc(C)c(CN2CCN(C(=O)Cn3ccc(NC(=O)OCc4ccccc4)nc3=O)CC2)c(C)c1	-5.55
CCOC(=O)c1c(S(=O)(=O)NCCc2ccc(OC)c(OC)c2)c(C)n(C)c1C	4.97
Cc1[nH]n(-c2ccc(Br)cc2)c(=O)c1C=Nc1ccc(S(=O)(=O)Nc2nccs2)cc1	20.1
Cc1cc([N+](=O)[O-])ccc1NC(=O)c1cccc(NC(=O)C(C)C)c1	15.1
CCOC(CCNC(=O)c1cn(CC(C)C)c(=O)c2c1c1ccccc1n2C)OCC	7.61
CC1=CC(C)(C)N2C(=O)C3(C(C#N)=C(N)Oc4cc(O)ccc43)c3cccc1c32 (centres unmarked)	15.3
CC(C)(C)OC1NS(=O)(=O)OCC1NCOC(Cl)(Cl)Cl (centres unmarked)	9.18
COc1ccc(/C=C2\N=C(c3ccccc3)NNC2=O)cc1	2.07
O=C(NCCc1nc(-c2ccccc2)no1)c1ccccc1	-3.86
CN1CCN(S(=O)(=O)c2ccc(NC(=O)c3ccco3)cc2)CC1	-13.4
COc1ccccc1NC(=O)CCC(=O)OCc1cccc([N+](=O)[O-])c1	22.4
CC(C)(C)C(=O)Cn1c(=O)n(CC2CCCO2)c(=O)c2ccccc21 (centres unmarked)	-11.5
Cc1ccc(CNc2ncc(-c3ccccc3)n2C)o1.O=C(O)C(=O)O	-37
O=C(CC1SC2=NCCN2C1=O)Nc1ccc(Cl)cc1 (centres unmarked)	6.97
Cc1cc(Cl)ccc1OCC(=O)N(Cc1cccs1)C1CCS(=O)(=O)C1 (centres unmarked)	-25.9
O=S(=O)(Cc1ccc(Cl)cc1)Nc1ccc(Cl)cn1	21.5
COc1ccc(S(=O)(=O)Oc2cccc(C(=S)N3CCOCC3)c2)cc1	-14.7
S=C(NCc1ccccc1)N1CCCCC1	-1.03
CC(=O)Nc1ccc(/C(C)=N/NC(=O)c2ccc(CN3CCOCC3)cc2)cc1	25.2
CCOC(=O)C1CCCN(c2c(N3CCN(c4ccccn4)CC3)c(=O)c2=O)C1 (centres unmarked)	-55.5
CC(C)CN(C(=O)COC(=O)CNC(=O)c1sc2ccccc2c1Cl)C1CCS(=O)(=O)C1 (centres unmarked)	-20
COc1cccc(CN2CC(C(=O)N(C)CC3CCOCC3)CCC2=O)c1 (centres unmarked)	22.4
